According to the supplement of paper PMC6746778:
This is one part of the list. Many values rest on one well or one pass, so single values are uncertain.

What was measured:
Experiment in all cases: proliferation Z-score within cell line (SRB, relative to all inhibitors screened on that line); triple-negative breast cancer lines and a kinase inhibitor library; SRB is the sulforhodamine B protein stain; higher = less growth inhibition (more resistant)
Details in all cases: concentration: 1 µM; 4 days
Bt20 = test system: Bt20
Bt549 = test system: Bt549
HCC1143 = test system: HCC1143
HCC1806 = test system: HCC1806
HCC1937 = test system: HCC1937
HCC38 = test system: HCC38
HCC70 = test system: HCC70
Hs578T = test system: Hs578T
MDA-MB-231 = test system: MDA-MB-231
MDA-MB-435s = test system: MDA-MB-435s
MDA-MB-436 = test system: MDA-MB-436
MDA-MB-453 = test system: MDA-MB-453
MDA-MB-468 = test system: MDA-MB-468
SKBR7 = test system: SKBR7
SUM1315MO2 = test system: SUM1315MO2
SUM149PT = test system: SUM149PT
SUM159PT = test system: SUM159PT
SUM185PE = test system: SUM185PE
SUM229PE = test system: SUM229PE
SUM52PE = test system: SUM52PE
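Note: Single-dose primary screen of a 378-member kinase inhibitor library in 96-well plates, with growth read as absorbance of protein-bound SRB dye after TCA fixation.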

SMILES	proliferation Z-score within cell line (Bt20)	proliferation Z-score within cell line (Bt549)	proliferation Z-score within cell line (HCC1143)	proliferation Z-score within cell line (HCC1806)	proliferation Z-score within cell line (HCC1937)	proliferation Z-score within cell line (HCC38)	proliferation Z-score within cell line (HCC70)	proliferation Z-score within cell line (Hs578T)	proliferation Z-score within cell line (MDA-MB-231)	proliferation Z-score within cell line (MDA-MB-435s)	proliferation Z-score within cell line (MDA-MB-436)	proliferation Z-score within cell line (MDA-MB-453)	proliferation Z-score within cell line (MDA-MB-468)	proliferation Z-score within cell line (SKBR7)	proliferation Z-score within cell line (SUM1315MO2)	proliferation Z-score within cell line (SUM149PT)	proliferation Z-score within cell line (SUM159PT)	proliferation Z-score within cell line (SUM185PE)	proliferation Z-score within cell line (SUM229PE)	proliferation Z-score within cell line (SUM52PE)
O=C(Nc1ccc(-c2ccnc(Nc3ccc(N4CCOCC4)cc3)n2)cc1)C1CCCN1 (stereo not given)	0.827	0.622	0.312	0.424	0.64	0.365	0.596	0.279	0.236	0.778	0.508	0.395	0.266	0.055	0.799	0.793	0.526	0.705	1.13	0.842
CC1(C)CNc2cc(NC(=O)c3cccnc3NCc3ccncc3)ccc21 [Motesanib Diphosphate (AMG-706)]	0.878	0.544	-1.44	1.1	-1.58	0.506	-1.88	0.337	0.901	0.953	-1.45	0.291	0.841	0.024	0.735	0.962	-1.96	1.06	1.67	1.03
CNC(=O)c1cc(COc2nnc(Nc3ccc(Cl)cc3)c3ccoc23)ccn1 [Telatinib]	-0.267	0.494	0.399	0.422	0.663	0.328	0.311	0.449	0.967	0.578	0.131	0.482	0.83	0.0144	0.317	0.373	0.13	-0.0366	0.279	0.357
CC(C)n1nc(-c2cc3cc(O)ccc3[nH]2)c2c(N)ncnc21	-1.16	-1.73	0.503	-0.442	-0.455	-0.588	-0.889	-2.47	0.0236	-0.472	-0.108	-1.89	0.651	-1.43	-1.48	-0.616	0.6	-1.67	-0.249	-1.11
Clc1ccc(Nc2nnc(Cc3ccncc3)c3ccccc23)cc1 [Vatalanib (PTK787) 2HCl]	0.42	0.809	1.07	0.981	0.881	0.55	0.971	0.523	0.841	0.922	0.844	0.875	0.673	1.11	0.262	0.786	0.626	0.0392	0.514	0.381
Cc1c(NC(=O)OC[C@@H]2COCCN2)cn2ncnc(Nc3ccc4c(cnn4Cc4cccc(F)c4)c3)c12	0.101	0.529	-1.84	-1.76	-1.68	0.512	-1.04	0.509	0.998	0.814	-1.75	-0.675	-0.614	-1.07	0.511	-0.0899	-2.55	0.709	-0.215	0.976
NC(=O)Nc1cc(-c2cccc(F)c2)sc1C(=O)N[C@H]1CCCNC1	-1.87	-2.67	0.502	-2.28	0.143	-2.67	0.246	-2.58	-1.97	-2.06	-0.434	-1.7	-1.37	-1.49	-1.86	-2.54	0.339	-0.717	-2.5	-1.39
Cn1cc(-c2[nH]c3cc(NC(=O)[C@H](N)C4CCCCC4)cc4c3c2C=NNC4=O)cn1	-0.89	-2.36	-2.74	-2.22	-0.49	-2.94	-3.15	0.265	-1.13	-1.36	-2.49	-1.83	-2.58	0.23	-2.26	-2.07	-0.0773	-2.35	-0.415	-1.87
Nc1nc(N)c(N=O)c(OCC2CCCCC2)n1	0.618	0.602	0.525	0.915	0.57	0.446	0.459	0.53	0.597	0.585	0.678	0.955	0.95	0.982	0.448	0.586	0.382	0.322	0.497	0.591
Cc1cc2c(F)c(Oc3ncnn4cc(OC[C@@H](C)OC(=O)[C@H](C)N)c(C)c34)ccc2[nH]1	0.486	0.123	-2.05	0.543	-1.81	0.504	-1.61	0.508	0.799	0.813	-1.76	0.498	0.879	-0.856	0.119	0.603	-2.76	-0.209	0.188	0.275
Oc1ccc(Nc2nc(-c3ccc(Cl)cc3)cs2)cc1	0.694	0.519	0.718	0.722	0.529	0.481	0.491	0.568	0.6	0.592	0.609	0.393	0.844	0.977	1.08	0.739	0.487	1.04	1.39	1.23
N#CC(=Cc1ccc(O)c(O)c1)C(=O)NCc1ccccc1 [AG-490 (Tyrphostin B42)]	1.02	0.477	0.686	0.765	0.512	0.532	0.791	0.687	0.952	0.989	0.724	0.717	0.637	-0.0949	0.881	0.82	0.548	0.657	0.706	1.19
COc1ncc(-c2ccc3nccc(-c4ccnnc4)c3c2)cc1NS(=O)(=O)c1ccc(F)cc1F	-2.01	-2	-2.06	-1.82	-2.34	-2.41	-1.87	-2.03	-1.5	-1.54	-1.82	-1.52	-1.57	-1.77	-1.06	-1.89	-2.13	-1.54	-1.91	-1.26
